Source: patent publication US20040258705A1, “Use of lectins to promote oligomerization of glycoproteins and antigenic molecules” (Antigenics Inc., priority 2003, published 2004)

Assays:
[1] = tested on: AH1 specific T-cells and RAW264.7 APC cells
Excerpt: Materials: the antigen presenting cell line, RAW264.7 (ATCC #TIB-71), was used in these experiments. It is an Abelson murine leukemia virus transformed macrophage cell line, which originated from the BALB/c strain (H-2d). Cytotoxic T Lymphocyte (CTLs): T cells specific for the CT26 tumor peptide were obtained from the University of Connecticut Medical Center. These T cells are specific for the AH1 epitope, amino acid sequence […]. These CTLs are re-stimulated on a weekly basis with the AH19 mer peptide plus irradiated BALB/c splenocytes. AIM V (Gibco-BRL) tissue culture medium was used. […] Proteases are undesirable in that they may digest elongated peptides to a smaller size able to surface load on MHC molecule inducing a CTL response independent of antigen representation. CT26 derived gp96 was purified from mouse tumors using both the buffer exchange and non-buffer exchange processes. AH1 19 mer ([…] ) alone was added as a negative control, as well as gp96 derived from normal mouse organs. AH1 9 mer ([…]), which can surface load and prime for CTL recognition was used as a positive control. An additional positive control included mouse derived gp96 complexed with AH1 19 mer peptide.
Preparation of CT26 Derived gp96: CT26 derived gp96 was purified from solid tumors. Mouse tumor was homogenized and clarified by centrifugation. The cell-free supernatant was subjected to a 50% ammonium sulfate precipitation. The resulting supernatant was further purified using ConA and DEAE chromatography. Protein was filter sterilized (0.22 μm), aliquoted and stored at −80±20° C. until use.
Preparation of gp96-AH119 mer complexes (complex positive control samples): AHI 19 merpeptide, dissolved in H2O, was added to gp96 at a 50:1 molar ratio. […] After incubation, samples were washed 4× with 5 ml PBS using a 30K MWCO Centricon spin filter unit (Millipore) and analyzed for protein concentration by the Bradford Assay. […]
After incubation, cells were pelleted by centrifugation at 1000 rpm for 5 minutes at 4° C. […] IFN—Y levels were measured by ELISA (R&D Systems). […]

[2] = tested on: human CD71-specific T cell hybridomas co-cultured with RAW264.7 cells; assay: CD71 in vitro representation assay; format: cell-based, murine (BALB/c); settings: for in vitro antigen representation in the CD71 system: human liver gp96 samples, protein concentration of 75 μg/mL

In the case of `CO[C@H]1O[C@H](CO)[C@@H](O)[C@H](O)[C@@H]1O` [α-MM, Methyl α-D-Mannopyranoside], the “viabilities of APC or T cells” value [1] is reported as “does not affect the viabilities” and the “effect on CT26 antigen representation” value ([1]; CT26-derived gp96 (Bx process) incubated 30 minutes with 50, 100 or 400 mM α-MM, diluted 1 in 5, INF-γ ELISA) is reported as “dose-dependent decrease”.

Concanavalin A [Con A] was tested, and the “effect of Con A on T cells alone” value ([2]; Con A at 7.5 ng/μg total protein, T cells without APCs) was “no effect on T cells alone”.

“human renal tumor gp96 (Bx): gp96-peptide complex from human renal tumors, buffer exchange step between Con A and DEAE columns, increased Con A” was tested, and the “in vitro antigen representation using the CD71 system” value ([2]; human renal tumor gp96, tumors A through D, versus homogenate-matched sample prepared without buffer exchange, IL-2 ELISA) was “higher in vitro representation activity”.

With “sample #1: human liver gp96 produced with buffer exchange step; con A content 7.5 ng/ug total protein” the “in vitro antigen representation in the CD71 system” value [2] was “more active in vitro”.

“scFv gp96: human liver gp96 purified on gp96-specific scFv column, no con A column step; 0 ng/ug con A” was tested, and the “in vitro antigen representation in the CD71 system” value [2] was “low in vitro activity similar to sample A”.

B1: CT26 gp96 (Bx): gp96 from murine CT26 tumor, prepared with buffer exchange step, increased amount of con A (protein, UniProt P08113 22-802, looked up)
Endoplasmin: DDEVDVDGTVEEDLGKSREGSRTDDEVVQREEEAIQLDGLNASQIRELREKSEKFAFQAEVNRMMKLIINSLYKNKEIFLRELISNASDALDKIRLISLTDENALAGNEELTVKIKCDKEKNLLHVTDTGVGMTREELVKNLGTIAKSGTSEFLNKMTEAQEDGQSTSELIGQFGVGFYSAFLVADKVIVTSKHNNDTQHIWESDSNEFSVIADPRGNTLGRGTTITLVLKEEASDYLELDTIKNLVRKYSQFINFPIYVWSSKTETVEEPLEEDEAAKEEKEESDDEAAVEEEEEEKKPKTKKVEKTVWDWELMNDIKPIWQRPSKEVEEDEYKAFYKSFSKESDDPMAYIHFTAEGEVTFKSILFVPTSAPRGLFDEYGSKKSDYIKLYVRRVFITDDFHDMMPKYLNFVKGVVDSDDLPLNVSRETLQQHKLLKVIRKKLVRKTLDMIKKIADEKYNDTFWKEFGTNIKLGVIEDHSNRTRLAKLLRFQSSHHSTDITSLDQYVERMKEKQDKIYFMAGSSRKEAESSPFVERLLKKGYEVIYLTEPVDEYCIQALPEFDGKRFQNVAKEGVKFDESEKTKESREATEKEFEPLLNWMKDKALKDKIEKAVVSQRLTESPCALVASQYGWSGNMERIMKAQAYQTGKDISTNYYASQKKTFEINPRHPLIRDMLRRIKEDEDDKTVMDLAVVLFETATLRSGYLLPDTKAYGDRIERMLRLSLNIDPEAQVEEEPEEEPEDTSEDAEDSEQDEGEEMDAGTEEEEEETEKESTEKDEL
modifications: CT26 tumor-derived; contains Con A
For B1, the “in vitro antigen representation using the CT26 system” value ([1]; CT26 tumor gp96, Preps A and B, versus matched sample without buffer exchange, IFN-γ ELISA) was “higher in vitro representation activity”.
